We go through 4 compounds from PubChem BioAssay (NCI).

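Cultured in 96-well plates, cells were exposed to test compound for 48 hours across five concentrations. The concentration for 50% growth inhibition is given as GI50. TGI: concentration producing complete growth inhibition.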 Some results are limits rather than exact numbers.

The experiment deals with NCI-H322M lung. Description: DTP human tumour cell line panel, 48 h.

Regarding `COc1ccc2[nH]cc(-c3cc(N)n4nc(-c5c[nH]c6ccc(OC)cc56)cc4n3)c2c1`, the GI50 is 2.2 µM and the total growth inhibition concentration (TGI) amounted to 5.42 µM.
Consider `Cc1ccc2sc3c(c2c1)OC(N)=C(C#N)C3c1cccc(F)c1` (stereo not drawn), for which the GI50 was 0.903 µM and the TGI amounted to 39 µM.
Consider `CCOP(=O)(OCC)OC[C@]12CCC(C)(C)C=C1[C@H]1CC[C@@H]3[C@@]4(C)CC[C@H](OP(=O)(OCC)OCC)C(C)(C)[C@@H]4CC[C@@]3(C)[C@]1(C)CC2`, for which the GI50 is 1.56 µM and the TGI was found to be 2.94 µM.
With `Cc1ccc2c(n1)C(=O)C(Cl)=C(Nc1ccc(C(=O)OC(C)(C)C)cc1)C2=O`, the GI50 is more than 92.5 µM and the TGI was more than 92.5 µM.
